Assay [1] addresses T1, cadherin-11 (CDH11), endogenous in human primary dermal fibroblasts (human (endogenous in primary dermal fibroblasts)) (UniProt P55287).
T1 sequence: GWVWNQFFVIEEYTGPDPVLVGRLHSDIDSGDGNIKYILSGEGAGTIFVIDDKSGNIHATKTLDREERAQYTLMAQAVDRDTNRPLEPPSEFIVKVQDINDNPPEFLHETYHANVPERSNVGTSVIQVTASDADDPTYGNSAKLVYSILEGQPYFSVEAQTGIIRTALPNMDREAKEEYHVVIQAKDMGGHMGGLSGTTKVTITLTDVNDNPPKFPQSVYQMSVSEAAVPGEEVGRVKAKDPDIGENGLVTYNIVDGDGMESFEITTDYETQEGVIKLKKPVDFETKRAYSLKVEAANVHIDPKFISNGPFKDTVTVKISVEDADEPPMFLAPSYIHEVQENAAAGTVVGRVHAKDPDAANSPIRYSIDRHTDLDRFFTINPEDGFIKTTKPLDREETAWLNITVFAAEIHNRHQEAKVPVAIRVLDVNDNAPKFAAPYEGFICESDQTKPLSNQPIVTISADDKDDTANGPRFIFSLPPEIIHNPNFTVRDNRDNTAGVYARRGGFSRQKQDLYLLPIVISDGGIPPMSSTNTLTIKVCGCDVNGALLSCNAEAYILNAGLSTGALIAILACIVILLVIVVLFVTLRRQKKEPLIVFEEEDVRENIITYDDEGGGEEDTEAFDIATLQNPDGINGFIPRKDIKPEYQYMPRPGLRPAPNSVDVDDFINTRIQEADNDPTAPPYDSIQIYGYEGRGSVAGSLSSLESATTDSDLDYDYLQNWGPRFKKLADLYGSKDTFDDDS
As to the kind of experiment: proximity ligation; in situ PLA for CDH11 and β-catenin on human fibroblasts treated with 10 ng/mL TGFβ1 or TGFβ1 plus 12 ug/mL cANGPTL4; both proteins endogenous.

Protein sequences, listed by entry. Tags and fused reporters are not part of them. Residues count along the entry.
UniProt P19022, residues 160-906: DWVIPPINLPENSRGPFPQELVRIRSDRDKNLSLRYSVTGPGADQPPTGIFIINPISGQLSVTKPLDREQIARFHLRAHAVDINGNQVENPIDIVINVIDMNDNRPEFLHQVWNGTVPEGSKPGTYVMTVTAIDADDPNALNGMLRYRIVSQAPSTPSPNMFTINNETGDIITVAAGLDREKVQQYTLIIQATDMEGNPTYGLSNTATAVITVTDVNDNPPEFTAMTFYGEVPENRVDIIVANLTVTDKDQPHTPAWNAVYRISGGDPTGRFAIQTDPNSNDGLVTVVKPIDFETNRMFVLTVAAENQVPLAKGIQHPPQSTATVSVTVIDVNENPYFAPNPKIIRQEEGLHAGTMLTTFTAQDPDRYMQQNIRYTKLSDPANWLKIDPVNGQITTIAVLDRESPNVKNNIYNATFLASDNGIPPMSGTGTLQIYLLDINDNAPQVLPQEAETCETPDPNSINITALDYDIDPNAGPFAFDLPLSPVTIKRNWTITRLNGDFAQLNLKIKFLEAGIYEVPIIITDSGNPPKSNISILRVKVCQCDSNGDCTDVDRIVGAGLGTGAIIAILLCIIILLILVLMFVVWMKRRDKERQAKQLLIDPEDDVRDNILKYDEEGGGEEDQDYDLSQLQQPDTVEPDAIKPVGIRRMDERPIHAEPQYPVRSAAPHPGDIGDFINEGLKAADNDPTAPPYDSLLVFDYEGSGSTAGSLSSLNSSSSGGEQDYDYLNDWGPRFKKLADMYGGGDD
UniProt P35222: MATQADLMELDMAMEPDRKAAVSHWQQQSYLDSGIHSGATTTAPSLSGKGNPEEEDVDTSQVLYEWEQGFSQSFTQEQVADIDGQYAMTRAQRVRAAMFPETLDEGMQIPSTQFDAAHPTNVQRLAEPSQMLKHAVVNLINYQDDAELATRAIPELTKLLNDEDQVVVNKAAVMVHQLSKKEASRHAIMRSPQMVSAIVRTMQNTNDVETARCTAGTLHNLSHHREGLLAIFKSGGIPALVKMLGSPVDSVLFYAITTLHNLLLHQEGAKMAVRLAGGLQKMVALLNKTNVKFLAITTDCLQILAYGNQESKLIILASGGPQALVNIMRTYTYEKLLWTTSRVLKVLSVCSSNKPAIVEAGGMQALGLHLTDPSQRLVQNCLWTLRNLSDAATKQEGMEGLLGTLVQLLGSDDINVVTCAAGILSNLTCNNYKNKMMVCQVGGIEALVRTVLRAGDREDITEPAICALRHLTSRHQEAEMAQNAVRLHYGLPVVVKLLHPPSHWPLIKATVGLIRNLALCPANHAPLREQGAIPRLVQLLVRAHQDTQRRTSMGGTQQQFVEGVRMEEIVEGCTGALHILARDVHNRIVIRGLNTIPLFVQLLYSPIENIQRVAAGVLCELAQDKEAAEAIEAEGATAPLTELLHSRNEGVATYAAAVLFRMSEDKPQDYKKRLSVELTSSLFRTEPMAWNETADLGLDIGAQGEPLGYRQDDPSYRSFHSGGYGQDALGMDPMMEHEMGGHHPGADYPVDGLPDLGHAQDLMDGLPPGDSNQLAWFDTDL
UniProt Q02248: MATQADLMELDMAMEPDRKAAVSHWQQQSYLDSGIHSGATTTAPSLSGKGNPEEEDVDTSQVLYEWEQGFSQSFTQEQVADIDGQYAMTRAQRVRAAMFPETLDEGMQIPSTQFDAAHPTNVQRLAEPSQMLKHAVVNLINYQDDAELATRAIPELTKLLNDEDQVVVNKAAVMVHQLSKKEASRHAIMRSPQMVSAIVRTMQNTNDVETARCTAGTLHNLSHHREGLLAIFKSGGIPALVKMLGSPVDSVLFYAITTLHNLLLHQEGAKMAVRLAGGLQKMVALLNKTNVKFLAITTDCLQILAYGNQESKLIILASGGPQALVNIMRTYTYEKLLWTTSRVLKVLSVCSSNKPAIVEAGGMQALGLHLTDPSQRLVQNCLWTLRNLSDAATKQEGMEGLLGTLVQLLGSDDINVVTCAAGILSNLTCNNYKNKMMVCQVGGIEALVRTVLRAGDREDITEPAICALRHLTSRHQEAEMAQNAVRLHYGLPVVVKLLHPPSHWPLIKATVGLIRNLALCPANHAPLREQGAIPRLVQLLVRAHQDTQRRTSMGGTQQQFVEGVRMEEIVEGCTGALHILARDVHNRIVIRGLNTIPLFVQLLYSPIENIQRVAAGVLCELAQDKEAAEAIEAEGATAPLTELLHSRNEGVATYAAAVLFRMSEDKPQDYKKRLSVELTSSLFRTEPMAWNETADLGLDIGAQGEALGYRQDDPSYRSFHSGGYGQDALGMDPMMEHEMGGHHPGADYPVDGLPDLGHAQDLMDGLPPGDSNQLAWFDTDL

Assay [2] concerns the target T2, CDH11 of fibroblasts in mouse wounds (mouse (endogenous in skin wounds)) (UniProt P55288).
T2 sequence: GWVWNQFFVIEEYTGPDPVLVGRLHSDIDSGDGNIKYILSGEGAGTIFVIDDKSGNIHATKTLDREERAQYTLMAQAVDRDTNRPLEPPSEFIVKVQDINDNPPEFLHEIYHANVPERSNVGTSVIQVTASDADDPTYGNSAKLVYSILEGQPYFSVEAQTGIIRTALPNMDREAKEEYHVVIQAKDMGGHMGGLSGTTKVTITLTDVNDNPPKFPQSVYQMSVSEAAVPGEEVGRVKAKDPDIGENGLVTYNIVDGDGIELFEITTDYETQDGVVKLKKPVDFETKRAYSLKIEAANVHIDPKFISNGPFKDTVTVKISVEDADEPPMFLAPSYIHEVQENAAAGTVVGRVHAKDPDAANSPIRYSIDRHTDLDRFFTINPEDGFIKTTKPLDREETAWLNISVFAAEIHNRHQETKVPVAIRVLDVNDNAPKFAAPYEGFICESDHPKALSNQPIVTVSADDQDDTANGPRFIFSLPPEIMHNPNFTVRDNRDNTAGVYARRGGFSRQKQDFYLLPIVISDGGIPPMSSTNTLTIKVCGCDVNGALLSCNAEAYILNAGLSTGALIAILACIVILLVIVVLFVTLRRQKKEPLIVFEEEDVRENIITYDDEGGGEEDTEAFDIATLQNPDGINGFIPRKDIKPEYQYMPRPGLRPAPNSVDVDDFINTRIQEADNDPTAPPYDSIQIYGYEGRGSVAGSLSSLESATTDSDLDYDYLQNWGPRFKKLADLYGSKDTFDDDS
As to the kind of experiment: proximity ligation; PLA on sections of mouse wounds (day 5; ANGPTL4+/+, ANGPTL4-/-, ob/ob with vehicle or cANGPTL4); endogenous proteins.

The target in assay [3] is T3, Inhibitor of DNA-binding/differentiation protein 3 (ID3), endogenous in human primary fibroblasts (human (endogenous in primary fibroblasts)) (UniProt Q02535).
T3 sequence: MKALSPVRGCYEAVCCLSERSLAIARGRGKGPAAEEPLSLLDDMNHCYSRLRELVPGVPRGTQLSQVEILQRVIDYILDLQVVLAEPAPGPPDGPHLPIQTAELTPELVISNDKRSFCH
The assay can be described thus: co-IP; immunoprecipitation with anti-ID3 from primary human fibroblasts; blots for ScxA and E47.

In assay [4] the target is T4, CDH11 in human scar tissues (human (endogenous in scar tissue)) (UniProt P55287).
T4 sequence: T1 sequence
As to the kind of experiment: proximity ligation; PLA on human scar tissues; endogenous proteins.

Assay [5] addresses CDH2 (also known as N-cadherin), endogenous in human fibroblasts (human (endogenous in primary dermal fibroblasts)) (UniProt P19022). As to the kind of experiment: proximity ligation; in situ PLA on human fibroblasts treated with 10 ng/mL TGFβ1 or TGFβ1 plus 12 ug/mL recombinant cANGPTL4; PLA spots per nucleus, 50 nuclei per condition; only the binder purified.
For assay [6], the target named is T1, cadherin-11 (CDH11), endogenous in human primary dermal fibroblasts (human (endogenous in primary dermal fibroblasts)). Described as above.
Assay [7] has as its target T2, CDH11 of fibroblasts in mouse wounds (mouse (endogenous in skin wounds)). The assay can be described thus: proximity ligation; PLA on sections of ob/ob mouse wounds treated topically with exogenous recombinant cANGPTL4; only the binder purified.
Assay [8] has as its target T1, cadherin-11 (CDH11), endogenous in human primary dermal fibroblasts (human (endogenous in primary dermal fibroblasts)). The assay can be described thus: co-IP; immunoprecipitation with anti-CDH11 or anti-Frizzled from lysates of human fibroblasts treated with TGFβ in the absence or presence of recombinant cANGPTL4; blot for cANGPTL4; only the binder purified.
Assay [9] deals with T5, Inhibitor of DNA-binding/differentiation protein 3 (ID3), endogenous in human primary fibroblasts (human (endogenous in primary fibroblasts)), Q02535.
T5 chain: T3 sequence
As to the kind of experiment: co-IP; immunoprecipitation with anti-ID3 from primary human fibroblasts; blots for ScxA and E47. The note with it: remark: other sources report otherwise.

For assay [10], the target named is T6, ID3 in mouse wounds (mouse (endogenous in skin wounds)) (UniProt P41133).
T6 sequence: T3 sequence with G31S, A33S, A34T, N112K
The assay can be described thus: co-IP; immunoprecipitation of ID3 from lysates of day 5 and day 10 cANGPTL4-treated mouse wounds (n = 9); blots for ScxA and E47.

Numbering of substitutions follows the chain as printed. No constants are given. Whether binding was seen depends on the method and setting. Binding seen in cells or lysates may run through a third protein. Some binding calls cover weakened binding; strength is not graded here.

“β-catenin, endogenous in human primary dermal fibroblasts (from UniProt P35222 1-781)”: the binding entry in assay [1] is “binds”.
For the molecule “β-catenin in mouse wounds (from UniProt Q02248 1-781)”, in assay [2], the binding result is given as “binds”.

B1: scleraxis (ScxA), endogenous in human primary fibroblasts (protein, UniProt Q7RTU7 1-201)
chain: MSFATLRPAPPGRYLYPEVSPLSEDEDRGSDSSGSDEKPCRVHAARCGLQGARRRAGGRRAGGGGPGGRPGREPRQRHTANARERDRTNSVNTAFTALRTLIPTEPADRKLSKIETLRLASSYISHLGNVLLAGEACGDGQPCHSGPAFFHAARAGSPPPPPPPPPARDGENTQPKQICTFCLSNQRKLSKDRDRKTAIRS
B1: in [3], the binding entry is “binds”.

B2: cANGPTL4 in human scar tissues (domain or fragment, UniProt Q9BY76 179-401)
chain: SRLHRLPRDCQELFQVGERQSGLFEIQPQGSPPFLVNCKMTSDGGWTVIQRRHDGSVDFNRPWEAYKAGFGDPHGEFWLGLEKVHSITGDRNSRLAVQLRDWDGNAELLQFSVHLGGEDTAYSLQLTAPVAGQLGATTVPPSGLSVPFSTWDQDHDLRRDKNCAKSLSGGWWFGTCSHSNLNGQYFRSIPQQRQKLKKGIFWKTWRGRYYPLQATTMLIQPMA
Take B2: the binding result in assay [4] is “binds”.

B3: recombinant human cANGPTL4 (C-terminal fibrinogen-like domain of angiopoietin-like 4) (domain or fragment, UniProt Q9BY76 179-401, looked up)
chain: B2 chain
notes: angiopoietin-like 4 (ANGPTL4), human, C-terminal fibrinogen-like domain (cANGPTL4); also called recombinant cANGPTL4 protein; source: purified protein for SPR, added to fibroblast cultures and applied to wounds
As to B3, the binding result in assay [5] is recorded as “binds weakly”; in assay [6], “binds”; in assay [7], “binds”; in assay [8], “binds”.

B4: E12/E47, endogenous in human primary fibroblasts, P15923 1-654 (protein)
chain: MNQPQRMAPVGTDKELSDLLDFSMMFPLPVTNGKGRPASLAGAQFGGSGLEDRPSSGSWGSGDQSSSSFDPSRTFSEGTHFTESHSSLSSSTFLGPGLGGKSGERGAYASFGRDAGVGGLTQAGFLSGELALNSPGPLSPSGMKGTSQYYPSYSGSSRRRAADGSLDTQPKKVRKVPPGLPSSVYPPSSGEDYGRDATAYPSAKTPSSTYPAPFYVADGSLHPSAELWSPPGQAGFGPMLGGGSSPLPLPPGSGPVGSSGSSSTFGGLHQHERMGYQLHGAEVNGGLPSASSFSSAPGATYGGVSSHTPPVSGADSLLGSRGTTAGSSGDALGKALASIYSPDHSSNNFSSSPSTPVGSPQGLAGTSQWPRAGAPGALSPSYDGGLHGLQSKIEDHLDEAIHVLRSHAVGTAGDMHTLLPGHGALASGFTGPMSLGGRHAGLVGGSHPEDGLAGSTSLMHNHAALPSQPGTLPDLSRPPDSYSGLGRAGATAAASEIKREEKEDEENTSAADHSEEEKKELKAPRARTSPDEDEDDLLPPEQKAEREKERRVANNARERLRVRDINEAFKELGRMCQLHLNSEKPQTKLLILHQAVSVILNLEQQVRERNLNPKAACLKRREEEKVSGVVGDPQMVLSAPHPGLSEAHNPAGHM
With B4, in assay [9], the binding result is “no binding”.

B5: ScxA in mouse wounds (protein, UniProt Q64124 1-207)
chain: MSFAMLRSAPPPGRYLYPEVSPLSEDEDRGSESSGSDEKPCRVHAARCGLQGARRRAGGRRAAGSGPGPGGRPGREPRQRHTANARERDRTNSVNTAFTALRTLIPTEPADRKLSKIETLRLASSYISHLGNVLLVGEACGDGQPCHSGPAFFHSGRAGSPLPPPPPPPPLARDGGENTQPKQICTFCLSNQRKLSKDRDRKTAIRS
On to B5, for which, in assay [10], the binding result is given as “binds”.

B6: endogenous cANGPTL4 in mice wounds (domain or fragment, UniProt Q9Z1P8 183-405)
chain: THLHRPPRDCQELFQEGERHSGLFQIQPLGSPPFLVNCEMTSDGGWTVIQRRLNGSVDFNQSWEAYKDGFGDPQGEFWLGLEKMHSITGNRGSQLAVQLQDWDGNAKLLQFPIHLGGEDTAYSLQLTEPTANELGATNVSPNGLSLPFSTWDQDHDLRGDLNCAKSLSGGWWFGTCSHSNLNGQYFHSIPRQRQERKKGIFWKTWKGRYYPLQATTLLIQPME
On to B6, for which the binding result in assay [2] is “binds”.

For the origin of these results see paper PMC5524754, “Angiopoietin-like 4 induces a β-catenin-mediated upregulation of ID3 in fibroblasts to reduce scar collagen expression” (Scientific Reports, 2017).
